{"source": "the supplement of paper PMC8728848", "binders": {"B1": {"name": "NKp30 (Homo sapiens), O14931 (protein)", "chain": "MAWMLLLILIMVHPGSCALWVSQPPEIRTLEGSSAFLPCSFNASQGRLAIGSVTWFRDEVVPGKEVRNGTPERFGRLAPLASSRFLHDHQAELHIRDVRGHDASIYVCRVEVLGLGVGTGNGTRLVVRKEHPQLGAGTHADPEAPEAEGAPSVFLFPPKPKDTLMISRTPEVTCVVVDVSHEDPEVKFNWYVDGVEVHNAKTPREEQYNSTYRVVSVLTVLHQDWLNGKEYKCKVSNKALPAPIEKTISKAKGQPREPQVYTLPPSRDELTKNQVSLTCLVKGFYPSDIAVEWESNGQPENNYKTTPPVLDSDGSFFLYSKLTVDKSRWQQGNVFSCSVMHEALHNHYTQKSLSLSPGK"}}, "experiment_in_all_cases": "glycan array binding signal (z-score within array); higher = stronger binding", "details_in_all_cases": "glycan notation: IUPAC condensed, linker removed", "key": {"Gal(b1-2)Gal": {"biological_target": "Gal(b1-2)Gal", "how_it_was_run": "(§1)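 The Consortium for Functional Glycomics database supplied 3228 glycan arrays, of which those lacking an available protein sequence were dropped. The binding signal, a within-array Z-score, was averaged across arrays of the same protein sequence and across linkers. Negative scores can be read as non-binding.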"}, "Gal(b1-3)Gal": {"biological_target": "Gal(b1-3)Gal", "how_it_was_run": "as §1"}, "Gal(b1-3)Gal(b1-4)GlcNAc": {"biological_target": "Gal(b1-3)Gal(b1-4)GlcNAc", "how_it_was_run": "as §1"}, "Gal(b1-3)GalNAc": {"biological_target": "Gal(b1-3)GalNAc", "how_it_was_run": "as §1"}, "[1]": {"biological_target": "Gal(b1-3)GalNAc(b1-3)Gal(a1-4)Gal(b1-4)Glc", "how_it_was_run": "as §1"}, "[2]": {"biological_target": "Gal(b1-3)GalNAc(b1-4)Gal(b1-4)Glc", "how_it_was_run": "as §1"}, "[3]": {"biological_target": "Gal(b1-3)GalNAc(b1-4)[Neu5Ac(a2-3)]Gal(b1-4)Glc", "how_it_was_run": "as §1"}, "Gal(b1-3)GlcNAc": {"biological_target": "Gal(b1-3)GlcNAc", "how_it_was_run": "as §1"}, "[4]": {"biological_target": "Gal(b1-3)GlcNAc(b1-2)Man(a1-3)[Gal(b1-3)GlcNAc(b1-2)Man(a1-6)]Man(b1-4)GlcNAc(b1-4)GlcNAc", "how_it_was_run": "as §1"}, "[5]": {"biological_target": "Gal(b1-3)GlcNAc(b1-3)Gal(b1-3)GlcNAc", "how_it_was_run": "as §1"}, "[6]": {"biological_target": "Gal(b1-3)GlcNAc(b1-3)Gal(b1-4)Glc", "how_it_was_run": "as §1"}, "[7]": {"biological_target": "Gal(b1-3)GlcNAc(b1-3)Gal(b1-4)GlcNAc", "how_it_was_run": "as §1"}, "[8]": {"biological_target": "Gal(b1-3)[Fuc(a1-4)]GlcNAc", "how_it_was_run": "as §1"}, "[9]": {"biological_target": "Gal(b1-3)[Fuc(a1-4)]GlcNAc(b1-3)Gal(b1-3)[Fuc(a1-4)]GlcNAc", "how_it_was_run": "as §1"}, "[10]": {"biological_target": "Gal(b1-3)[Fuc(a1-4)]GlcNAc(b1-3)Gal(b1-4)GlcNAc", "how_it_was_run": "as §1"}, "[11]": {"biological_target": "Gal(b1-3)[Fuc(a1-4)]GlcNAc(b1-3)Gal(b1-4)[Fuc(a1-3)]GlcNAc", "how_it_was_run": "as §1"}, "[12]": {"biological_target": "Gal(b1-3)[GlcNAc(b1-6)]GalNAc", "how_it_was_run": "as §1"}, "[13]": {"biological_target": "Gal(b1-3)[Neu5Ac(a2-6)]GalNAc", "how_it_was_run": "as §1"}, "[14]": {"biological_target": "Gal(b1-3)[Neu5Ac(a2-6)]GlcNAc(b1-6)Gal(b1-4)Glc", "how_it_was_run": "as §1"}, "[15]": {"biological_target": "Gal(b1-3)[Neu5Ac(b2-6)]GalNAc", "how_it_was_run": "as §1"}, "[16]": {"biological_target": "Gal(b1-4)GalNAc(a1-3)[Fuc(a1-2)]Gal(b1-4)GlcNAc", "how_it_was_run": "as §1"}, "[17]": {"biological_target": "Gal(b1-4)GalNAc(b1-3)[Fuc(a1-2)]Gal(b1-4)GlcNAc", "how_it_was_run": "as §1"}, "Gal(b1-4)Glc": {"biological_target": "Gal(b1-4)Glc", "how_it_was_run": "as §1"}, "Gal(b1-4)Glc6S": {"biological_target": "Gal(b1-4)Glc6S", "how_it_was_run": "as §1"}, "Gal(b1-4)GlcNAc": {"biological_target": "Gal(b1-4)GlcNAc", "how_it_was_run": "as §1"}, "[18]": {"biological_target": "Gal(b1-4)GlcNAc(a1-6)Gal(b1-4)GlcNAc", "how_it_was_run": "as §1"}, "[19]": {"biological_target": "Gal(b1-4)GlcNAc(b1-2)Man(a1-3)[Gal(b1-4)GlcNAc(b1-2)Man(a1-6)]Man(b1-4)GlcNAc(b1-4)GlcNAc", "how_it_was_run": "as §1"}, "[20]": {"biological_target": "Gal(b1-4)GlcNAc(b1-3)Gal(b1-3)GlcNAc", "how_it_was_run": "as §1"}, "[21]": {"biological_target": "Gal(b1-4)GlcNAc(b1-3)Gal(b1-4)Glc", "how_it_was_run": "as §1"}, "[22]": {"biological_target": "Gal(b1-4)GlcNAc(b1-3)Gal(b1-4)GlcNAc", "how_it_was_run": "as §1"}, "[23]": {"biological_target": "Gal(b1-4)GlcNAc(b1-3)Gal(b1-4)GlcNAc(b1-3)Gal(b1-4)GlcNAc", "how_it_was_run": "as §1"}, "[24]": {"biological_target": "Gal(b1-4)GlcNAc(b1-3)Gal(b1-4)[Fuc(a1-3)]GlcNAc(b1-3)Gal(b1-4)[Fuc(a1-3)]GlcNAc", "how_it_was_run": "as §1"}, "[25]": {"biological_target": "Gal(b1-4)GlcNAc(b1-3)GalNAc", "how_it_was_run": "as §1"}, "[26]": {"biological_target": "Gal(b1-4)GlcNAc(b1-3)[Gal(b1-4)GlcNAc(b1-6)]Gal(b1-4)GlcNAc", "how_it_was_run": "as §1"}, "[27]": {"biological_target": "Gal(b1-4)GlcNAc(b1-3)[GlcNAc(b1-6)]Gal(b1-4)GlcNAc", "how_it_was_run": "as §1"}, "[28]": {"biological_target": "Gal(b1-4)GlcNAc(b1-6)Gal(b1-4)GlcNAc", "how_it_was_run": "as §1"}, "[29]": {"biological_target": "Gal(b1-4)GlcNAc(b1-6)Gal(b1-4)GlcNAc(b1-6)GalNAc", "how_it_was_run": "as §1"}}, "note": "Some of the results follow."}
{"binder": "B1", "values": [{"measurement": "glycan array binding signal (z-score)", "setting": "Gal(b1-2)Gal", "value": 0.837}, {"measurement": "glycan array binding signal (z-score)", "setting": "Gal(b1-3)Gal", "value": -0.232}, {"measurement": "glycan array binding signal (z-score)", "setting": "Gal(b1-3)Gal(b1-4)GlcNAc", "value": 0.165}, {"measurement": "glycan array binding signal (z-score)", "setting": "Gal(b1-3)GalNAc", "value": 0.11}, {"measurement": "glycan array binding signal (z-score)", "setting": "[1]", "value": -0.488}, {"measurement": "glycan array binding signal (z-score)", "setting": "[2]", "value": -0.215}, {"measurement": "glycan array binding signal (z-score)", "setting": "[3]", "value": -0.671}, {"measurement": "glycan array binding signal (z-score)", "setting": "Gal(b1-3)GlcNAc", "value": 0.12}, {"measurement": "glycan array binding signal (z-score)", "setting": "[4]", "value": -0.106}, {"measurement": "glycan array binding signal (z-score)", "setting": "[5]", "value": -0.27}, {"measurement": "glycan array binding signal (z-score)", "setting": "[6]", "value": -0.365}, {"measurement": "glycan array binding signal (z-score)", "setting": "[7]", "value": -0.421}, {"measurement": "glycan array binding signal (z-score)", "setting": "[8]", "value": -0.032}, {"measurement": "glycan array binding signal (z-score)", "setting": "[9]", "value": -0.509}, {"measurement": "glycan array binding signal (z-score)", "setting": "[10]", "value": -0.678}, {"measurement": "glycan array binding signal (z-score)", "setting": "[11]", "value": 0.092}, {"measurement": "glycan array binding signal (z-score)", "setting": "[12]", "value": -0.546}, {"measurement": "glycan array binding signal (z-score)", "setting": "[13]", "value": -0.549}, {"measurement": "glycan array binding signal (z-score)", "setting": "[14]", "value": -0.223}, {"measurement": "glycan array binding signal (z-score)", "setting": "[15]", "value": -0.317}, {"measurement": "glycan array binding signal (z-score)", "setting": "[16]", "value": 0.071}, {"measurement": "glycan array binding signal (z-score)", "setting": "[17]", "value": 0.341}, {"measurement": "glycan array binding signal (z-score)", "setting": "Gal(b1-4)Glc", "value": -0.161}, {"measurement": "glycan array binding signal (z-score)", "setting": "Gal(b1-4)Glc6S", "value": -0.231}, {"measurement": "glycan array binding signal (z-score)", "setting": "Gal(b1-4)GlcNAc", "value": -0.187}, {"measurement": "glycan array binding signal (z-score)", "setting": "[18]", "value": -0.21}, {"measurement": "glycan array binding signal (z-score)", "setting": "[19]", "value": -0.438}, {"measurement": "glycan array binding signal (z-score)", "setting": "[20]", "value": -0.444}, {"measurement": "glycan array binding signal (z-score)", "setting": "[21]", "value": -0.291}, {"measurement": "glycan array binding signal (z-score)", "setting": "[22]", "value": 0.253}, {"measurement": "glycan array binding signal (z-score)", "setting": "[23]", "value": -0.44}, {"measurement": "glycan array binding signal (z-score)", "setting": "[24]", "value": -0.453}, {"measurement": "glycan array binding signal (z-score)", "setting": "[25]", "value": 0.79}, {"measurement": "glycan array binding signal (z-score)", "setting": "[26]", "value": 0.041}, {"measurement": "glycan array binding signal (z-score)", "setting": "[27]", "value": -0.61}, {"measurement": "glycan array binding signal (z-score)", "setting": "[28]", "value": -0.494}, {"measurement": "glycan array binding signal (z-score)", "setting": "[29]", "value": -0.56}]}
